Measurements: PubChem BioAssay AID1454 (National Center for Advancing Translational Sciences (NCATS), 2008)
Out of some 130,000 compounds screened, about 550 (0.42%) were called active. Inconclusive results, whose numbers are uncertain, are shown with a selection of clear calls. Calls come from the whole dose curve; as a rule, active = well fitted inhibition curve with a large enough effect; inconclusive = small, poorly fitted or top-dose-only effect, or effect the other way; inactive = flat fitted curve, though single readings scatter. No potency is given beside an inconclusive call; the fits are too rough.

assay: qHTS Assay for Inhibitors of the ERK Signaling Pathway using a Homogeneous Screening Assay; Stimulation with EGF; conditions: HEK293-V1b, EGF-stimulated phospho-ERK AlphaScreen; note: nearly all actives have a fitted effect of over 55% in size
Description: NIH Chemical Genomics Center [NCGC]
NIH Molecular Libraries Screening Centers Network [MLSCN]
Assay Submitter (PI): Dr. Wei Zheng, NCGC/NIH
The Ras/extracellular-signal-regulated kinase (ERK) mitogen activated protein (MAP) kinase signaling pathway (ERK1/2 cascade) plays a key role in transmitting signals from the cell surface to the nucleus (Nishida and Gotoh 1993; Chang and Karin, 2001). The cascade is initiated by the small G-protein Ras, which recruits Raf from the cytosol, where activation occurs. Alternatively, this pathway can be activated by elevating intracellular cAMP, or by activation of a receptor tyrosine kinase as epidermal growth factor receptor.
Activation of the ERK pathway is essential in increased cell division and cell survival. Sustained and constitutive activation of the ERK pathway, however, has been linked to uncontrolled cell proliferation, increased cell survival, and tumor progression. Thus, the ERK has been as an attractive target for cancer chemotherapy in the past few years (Sebolt-Leopold and Herrera, 2004). Given its physiological and pathological importance, assessment of ERK phosphorylation has been broadly performed in both basic research and drug discovery. Most assays for the measurement of ERK phosphorylation use the antibody-based detection methods, such as western blot and ELISA. These assays require multiple reagent additions with cell wash steps and are not suitable for high throughout screening.
The current cell-based ERK phosphorylation assay was performed using AlphaScreen platform. AlphaScreen is a two bead-based proximity-dependent chemical energy transfer luminescent assay platform. The assay reagents (ERK SureFire(TM) kit) were supplied from TGR BioSciences (Australia). In the presence of specific antibodies, phosphorylated ERK will bring "donor" and "acceptor" beads to a proximity range (<200 nm), and subsequently lead a chemical luminescent reaction upon exciting donor beads with 680 nm laser. To exclude the assay-related false positives, we used a biotinylated rabbit IgG to perform counter-screen. The biotinylated antibody mimics the phosphorylated ERK1/2 for bringing streptavidin coated beads and protein-A coated beads to a proximity range for the AlphaScreen detection.
NCGC Assay Protocol Summary:
HEK293 cells stably expressing type-1 vasopressin receptor (V1b) were maintained in DMEM medium (Invitrogen, Carlsbad, CA) at 37C under a humidified atmosphere containing 5% CO2 and 95% air. The medium contained 10% FBS, 2 mM L-glutamine, non-essential amino acid, pyruvate and 50 U/ml penicillin and 50 ug/ml streptomycin (Invitrogen). The aliquots of frozen cells were stored at -135C and used for the compound screening. All compounds were screened as titrations from 0.6 nM to 46 uM final concentration. Epidermal growth factor (EGF) was used to stimulate the ERK phosphorylation pathway. The ERK phosphorylation in cells was determined using an AlphaScreen assay kit provided by […]. Data were normalized to the controls for basal activity (DMSO only) and 100% activation (25 nM EGF). AC50 values were determined from concentration-response data modeled with the standard Hill equation.
(1) Seed 4 ul/well of resuspended frozen HEK293 cells containing 2000 cells in white 1536-well plates for overnight with 1% FBS at 37C under a humidified atmosphere containing 5% CO2 and 95% air.
(2) Add 23 nL compounds in DMSO solution. The final titration was 0.6 nM to 46 uM.
(3) Incubate at 37C for 30 min.
(4) Dispense 0.5uL EGF (25 nM in final)
(5) Incubate at 37C for 5 min.
(6) Dispense 0.5uL of 1:2 diluted 5x lysis buffer.
(7) Incubate at 37C for 10 min.
(8) Dispense 1.5uL of mixture of activation buffer and reaction buffer with AlphaScreen beads (streptavidin donor beads and protein-A acceptor beads, 10 ng/well for each).
(9) Incubate at room temperature for 5 hr.
(10) Detect the assay plate in an EnVision plate reader (PerkinElmer) using the AlphaScreen detection mode.
[…]
Potency is the fitted concentration of half-maximal effect; tags give direction and shape of the fitted curve.

Compound | Potency
c1ccc2c(Nc3nc(N4CCOCC4)c4ccccc4n3)cccc2c1 | inconclusive [inhibitor, single point]
Cc1c(C(=O)O/N=C(\N)c2ccccn2)cccc1[N+](=O)[O-] | inconclusive [inhibitor, full curve, poor fit]
CN(CCc1cn[nH]c1)Cc1nc(C(c2ccccc2)c2ccccc2)no1 | inconclusive [activator, partial curve, poor fit]
CCCN1C(=O)/C(=C\c2nc3ccccc3c(=O)[nH]2)c2ccccc21 | inconclusive [inhibitor, full curve, poor fit]
Oc1cccc(/C=N\Nc2nncc(-c3ccccc3)n2)c1 | inactive
O[C@H](CCCN1CCN(c2ncc(F)cn2)CC1)c1ccc(F)cc1 | inactive
CN1CCN(c2ncc3nc(-c4ccccc4)c(=O)n(Cc4ccc(F)cc4)c3n2)CC1 | inconclusive [inhibitor, single point]
CC(=O)NCCCCCCNC(C)=O | inconclusive [inhibitor, single point]
O=c1c2oc3ccccc3c2ncn1Cc1cccc(Cl)c1 | inconclusive [inhibitor, single point]
O=[N+]([O-])c1cccc(-c2cn3nc(-c4ccccc4)c(-c4ccccc4)nc3n2)c1 | inconclusive [activator, partial curve]
CCc1ccc(OCCOCC(O)CN2CCN(Cc3ccc(Cl)cc3)CC2)cc1 (stereo not given) | inconclusive [inhibitor, single point]
CCOC(=O)C1CCC(CN(Cc2ccccc2)S(=O)(=O)c2ccc([N+](=O)[O-])cc2)CC1 (stereo not given) | inconclusive [inhibitor, partial curve]
Cc1ccc(C)c(Cn2c(O)c(N=NC(=S)Nc3ccccc3F)c3ccccc32)c1 | inconclusive [inhibitor, partial curve]
CCNCCCNCCCCNCCCNCC | inactive
CCNC(=S)Nc1ccc(S(=O)(=O)Nc2cc(C)nc(C)n2)cc1 | inactive
CCN(CC)C(=O)c1c[nH]c2ccc(S(=O)(=O)Nc3cc(C)cc(C)c3)cc2c1=O | inconclusive [inhibitor, partial curve]
COc1ccc(C(=O)N2CCC3(CCCN(c4ccc(-c5ccccc5)cc4)C3)CC2)cc1 | inactive
CC(C)C(Sc1nc(-c2ccccc2)cc(-c2ccccc2)c1C#N)C(=O)O (stereo not given) | inconclusive [inhibitor, partial curve]
COC(=O)C(CCSC)NC(=O)c1cc2c(n(-c3ccc(C)cc3)c1=O)CCCC2=O (stereo not given) | inconclusive [activator, full curve, poor fit]
CN(C)CCCNC(=O)/C(=C\c1ccc(-c2ccc(Br)cc2)o1)NC(=O)c1ccccc1 | inconclusive [inhibitor, single point]
COc1ccc(-c2csc(NC(=O)c3ccco3)n2)cc1 | inconclusive [inhibitor, single point]
O=[N+]([O-])c1ccccc1SN(Cc1ccccc1)c1ccccn1 | inconclusive [inhibitor, partial curve, poor fit]
CCCC1/C(=N/O)CC(c2ccccc2)NC1c1ccccc1 (stereo not given) | active: 35.5 µM

Compound | Potency
CCCc1cc2c(n1Cc1cc(F)cc(F)c1)C(C)C1CN(C(=O)c3ccccc3)C(C)(C(=O)OC)C21 (stereo not given) | inactive
Cc1ccc(N2CN(CCc3ccccc3)CNC2=S)cc1 | inconclusive [inhibitor, single point]
Nc1nnc(-c2cccc(Cl)c2Cl)c(N)n1 | inconclusive [inhibitor, single point]
CCCCCS(=O)(=O)CCCCCCCCCCn1c(-c2ccc(O)cc2)c(C)c2cc(O)ccc21 | active: 14.1 µM
Cc1ccccc1OCCC(=O)Nc1cccc(S(=O)(=O)Nc2ccccc2Cl)c1 | inconclusive [inhibitor, single point]
CC(C)C(NS(=O)(=O)c1c(Cl)cccc1Cl)C(=O)OCC(=O)c1c[nH]c2ccccc12 (stereo not given) | active: 25.1 µM
NS(=O)(=O)c1ccc(NC(=O)CN2C(=O)c3ccccc3C2=O)cc1 | inconclusive [inhibitor, single point]
c1csc(-c2ccnc3ncnn23)c1 | inactive
CCOc1ccc(N2C(=O)/C(=C\c3ccc(O)c(OC)c3)S(=O)(=O)C2c2cccc([N+](=O)[O-])c2)cc1 (stereo not given) | inactive
O=C(c1ccco1)N1CCN(c2ncnc3c2[nH]c2ccc(Cl)cc23)CC1 | inactive
COc1ccc(N=Nc2n(C)c3ccccc3[n+]2C)cc1 | inconclusive [inhibitor, partial curve]
C=C1C(=O)OC2C1CC/C(C)=C/CCC1(C)OC21 (stereo not given) | inactive
CC1=CC(C)C2(COC(c3ccc[n+](C)c3)OC2)C(C)C1 (stereo not given) | inconclusive [inhibitor, partial curve]
Oc1cc(O)c2c(c1)OC(c1ccc(O)c(O)c1)C(O)C2 (stereo not given) | inconclusive [inhibitor, single point]
Cc1[nH]ccc(=O)c1OC1OC(CO)C(O)C(O)C1O (stereo not given) | inactive
CCCCCCCC/C=C\CCCCCCCC(=O)NCCCC(=O)O | inactive
CCN(CC)c1ccc(NC(=S)NC(=O)c2cccs2)cc1 | inconclusive [inhibitor, partial curve]
CC(C)C(=O)Nc1nnc(SCC(=O)Nc2ccc3c(c2)OCO3)s1 | inconclusive [activator, full curve, poor fit]
N=C(N)SCc1cn(-c2ccccc2)nc1-c1ccc(Br)cc1 | inconclusive [inhibitor, single point]
Cc1ccc(NC(=O)c2ccc(C(C)(C)C)cc2)cc1[N+](=O)[O-] | inconclusive [inhibitor, partial curve]
CCCCc1ccc(N/C(N)=N/c2nc(C)cc(C)n2)cc1 | active: 17.8 µM
O=C(c1cnc2ccc3ccccc3c2c1)c1cc(F)ccc1O | inconclusive [inhibitor, single point]
